The values below come from article PMC4336329 (PLoS ONE, 2015).

Hit rate of the full screen: of about 310,000 compounds, about 2,200 (0.71%) showed an effect of 50% or more. The effect is printed as a negative number. Some of the results follow.

The target in the assay is human ether-à-go-go-related gene (hERG) potassium channel (human, UniProt Q12809). As to the kind of experiment: primary screen, population patch clamp on CHO cells stably expressing hERG.
Chain of human ether-à-go-go-related gene (hERG) potassium channel (Q12809 whole entry, looked up): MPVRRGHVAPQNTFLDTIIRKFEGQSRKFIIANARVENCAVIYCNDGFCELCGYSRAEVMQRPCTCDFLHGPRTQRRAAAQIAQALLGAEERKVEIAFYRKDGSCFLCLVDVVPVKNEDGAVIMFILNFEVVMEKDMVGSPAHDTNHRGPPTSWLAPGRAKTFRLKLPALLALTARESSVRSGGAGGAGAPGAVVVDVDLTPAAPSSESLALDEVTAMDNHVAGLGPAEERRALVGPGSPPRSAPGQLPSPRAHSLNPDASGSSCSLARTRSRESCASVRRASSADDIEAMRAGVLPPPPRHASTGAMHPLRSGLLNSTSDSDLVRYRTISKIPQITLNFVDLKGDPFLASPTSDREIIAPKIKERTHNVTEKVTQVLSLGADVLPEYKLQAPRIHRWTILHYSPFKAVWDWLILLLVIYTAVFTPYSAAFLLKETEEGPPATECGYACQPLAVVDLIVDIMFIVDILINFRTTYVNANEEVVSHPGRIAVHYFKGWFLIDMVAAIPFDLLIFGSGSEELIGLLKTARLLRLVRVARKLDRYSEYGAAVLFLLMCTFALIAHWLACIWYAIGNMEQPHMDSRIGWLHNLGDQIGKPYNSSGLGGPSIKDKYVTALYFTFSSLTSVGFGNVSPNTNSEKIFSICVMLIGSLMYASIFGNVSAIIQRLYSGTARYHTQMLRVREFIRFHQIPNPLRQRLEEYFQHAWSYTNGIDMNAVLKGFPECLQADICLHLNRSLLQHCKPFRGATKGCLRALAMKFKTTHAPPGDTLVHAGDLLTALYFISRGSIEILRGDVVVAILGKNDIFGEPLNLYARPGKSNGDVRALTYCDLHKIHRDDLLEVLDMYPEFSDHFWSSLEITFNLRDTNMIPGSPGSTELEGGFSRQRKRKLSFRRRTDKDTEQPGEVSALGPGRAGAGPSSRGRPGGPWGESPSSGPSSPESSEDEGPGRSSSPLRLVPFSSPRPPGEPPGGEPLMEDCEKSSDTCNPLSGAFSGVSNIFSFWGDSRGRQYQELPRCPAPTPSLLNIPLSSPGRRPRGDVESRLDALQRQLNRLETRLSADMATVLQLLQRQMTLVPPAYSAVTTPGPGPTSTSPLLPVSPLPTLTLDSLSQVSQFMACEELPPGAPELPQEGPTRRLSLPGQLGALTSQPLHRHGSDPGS
Regarding `Cc1cc(Cl)ccc1OCCCC(=O)Nc1cccc(-n2cnnn2)c1`, the “hERG current change (%, negative = inhibition) at 1uM” value is listed as 1.28%.
To `O=C(CCCCl)NC(=S)Nc1ccc(CN2CCOCC2)cc1` belongs 1.17%; to `O=c1c2c3c(sc2n2cnnc2n1Cc1ccccc1)CN(Cc1ccccc1)CC3`, -0.523%.
Then `Nc1c(C(=O)Nc2ccc(F)cc2)sc2nc(-c3ccco3)ccc12`, with 5.39%; and `Cc1cc(C(=O)NNC(=O)Cc2ccc(Cl)cc2)c(C)o1`, with -24.8%.
To `C/C(N)=C(/C#N)C(=O)COc1ncnc2ccc(Br)cc12` belongs 2.43%; to `CCCC1=C/C(=C/c2ccc(-c3ccccc3OC)o2)C(=O)O1`, 3.26%; to `CC(C)c1ccc(N(CC(=O)N2CCOCC2)S(C)(=O)=O)cc1`, 9.74%.
In the case of `Cc1scc(C(=O)N/N=C/c2ccsc2)c1C`, the “hERG current change (%, negative = inhibition) at 1uM” value was 5.8%.
Then `C=CCn1c(=S)[nH]c2cc(C(=O)NCCc3ccc(S(N)(=O)=O)cc3)ccc2c1=O`, with 0.0661%.
As for `CCc1ccc(C2CC(c3cccc(Cl)c3)n3nc(N)nc3N2)cc1` (centres unmarked), the “hERG current change (%, negative = inhibition) at 1uM” value was -5.07%.
To `CCOc1ccc(C(=O)NCC2(c3ccccc3)CCOCC2)cc1` belongs 15.2%; to `CCOC(=O)CC1C(=O)NCCN1C(=O)c1ccc(Cl)cc1Cl` (centres unmarked), 4.9%.
To `COc1cc(CN2CCCC(C(=O)c3ccccc3SC)C2)cc(OC)c1` (centres unmarked) belongs -9.13%; to `O=C(C1CCCN1S(=O)(=O)c1cccc2nsnc12)N1CCN(c2ccc(F)cc2)CC1` (centres unmarked), -54.1%; to `Cc1cc(NC(=O)COC(=O)CC2CCCC2)c([N+](=O)[O-])cc1C`, -1.08%.
Then `O=C(Cn1cc([N+](=O)[O-])cn1)NCc1ccccc1Cl`, with 16.8%.
For the compound `CCOC(=O)N1CCN(C(=O)COc2cc(=O)n(CC)c3ccccc23)CC1`, the “hERG current change (%, negative = inhibition) at 1uM” value is 7.42%.
Then `Cc1ccc(N(C)S(=O)(=O)c2cccc(C(=O)NC3=NCCS3)c2)cc1`, with 19.9%; and `C=CCn1c(SCC(=O)c2ccc(F)cc2)nnc1-c1ccc2c(c1)OCO2`, with 0.0233%; and `Cc1csc(NC(=O)Cc2ccc(Cl)cc2)n1`, with 0.992%.
With `c1ccc(-c2csc(N3CCc4ccccc4C3)n2)cc1`, the “hERG current change (%, negative = inhibition) at 1uM” value was 12%.
Regarding `O=[N+]([O-])c1ccc(O)c(C(C#Cc2ccccc2)N2CCOCC2)c1` (centres unmarked), the “hERG current change (%, negative = inhibition) at 1uM” value amounted to 6.76%.
For `COc1ccc(S(=O)(=O)N2CCN(c3cc(-c4ccccc4)nc4ncnn34)CC2)cc1`, the “hERG current change (%, negative = inhibition) at 1uM” value was -14.2%.
Then `Cc1cc(=O)n2nc(N3CCC(C(=O)N4CCN(Cc5ccccc5)CC4)CC3)sc2n1`, with -0.842%; and `Cc1cccc(Nc2nc(N)nc(CCl)n2)c1`, with 11.4%.
To `O=C(O)CSC(=S)N1CCCC1` belongs 10.3%.
To `CCN(C(=O)COC(=O)/C=C/c1nc2ccccc2s1)C1CCS(=O)(=O)C1` (centres unmarked) belongs 12.4%; to `Cc1cc(NC(=O)CN2C(=O)CCSc3ccccc32)no1`, 9.96%.
Turning to `C=CCn1c(O)c(N=NC(=O)CNC(=O)/C=C/c2ccc(OC)cc2)c2ccccc21`, the “hERG current change (%, negative = inhibition) at 1uM” value is on record as 21.7%.
Then `O=C(O)c1ccc[nH]c1=S`, with 11%.
To `Cc1ncc([N+](=O)[O-])n1CCOC(=O)NC(NCc1cccnc1)C(Cl)(Cl)Cl` (centres unmarked) belongs 9.75%; to `CCOC(=O)N1CCN(C(=O)C2CCN(S(=O)(=O)c3ccc(F)cc3)CC2)CC1`, -13.2%; to `CC(=O)O[C@H]1CC[C@@]2(C)[C@@H](CC[C@H]3[C@@H]4CC[C@H](C(C)O)[C@@]4(C)CC(=O)[C@@H]32)C1` (some centres unmarked), -8.68%.
With `COc1cccc(N2CCN(Cc3nc(N)nc(Nc4ccccc4)n3)CC2)c1`, the “hERG current change (%, negative = inhibition) at 1uM” value was -31.9%.
To `Cn1c(N)c(C(=O)CSc2nnc(C3CC3)n2Cc2ccccc2)c(=O)[nH]c1=O` belongs 6.95%.
Take `CC(C)OC(=O)COc1cc(O)c2c(=O)cc(-c3ccccc3)oc2c1`: the “hERG current change (%, negative = inhibition) at 1uM” value is 10.8%.
`Cc1[nH]c2ccccc2c1/C=N/NC(=S)NC(C)C`: the “hERG current change (%, negative = inhibition) at 1uM” value amounted to 16.1%.
Then `Cc1cc(F)ccc1S(=O)(=O)N1CCCCC1CCNC(=O)C(=O)NCc1ccccn1` (centres unmarked), with -31.1%; and `CCn1c(SC(C)C(=O)Nc2ccc3c(c2)OCCO3)nnc1C1CC1` (centres unmarked), with 12%; and `COc1cc(-c2nc3c(c(C)nn3-c3ccccc3)c3cc(OC)c(OC)cc23)ccc1O`, with 6.21%.
To `CCNC(=O)CSc1nc2ccccc2c(=O)n1OC` belongs 11.3%.
As to `O=C(CCNC(=O)c1ccc(Br)o1)NCc1ccccc1Cl`, the “hERG current change (%, negative = inhibition) at 1uM” value was 6.09%.
Then `Cc1cc(Cl)ccc1OCC(=O)NCCOc1nc(N2CCOCC2)nc(N2CCOCC2)n1`, with -11%.
